Data from PubChem BioAssay AID1460 (National Center for Advancing Translational Sciences (NCATS), 2008).
The campaign covered roughly 270,000 compounds. About 5,800 (2.1%) were called active. The shares of active, inactive and inconclusive entries below differ from those in the screen. The call rests on the fitted dose curve; in most records, active means well fitted inhibition curve with a large enough effect; inconclusive means small, poorly fitted or top-dose-only effect; inactive means flat fitted curve, though single readings scatter. A potency beside an inconclusive call is a rough fit, not a confirmed value.

molecular target: Microtubule-associated protein tau (Homo sapiens) (UniProt P10636); assay: qHTS for Inhibitors of Tau Fibril Formation, Thioflavin T Binding; settings: recombinant tau K18 P301L (four-repeat tau fragment), heparin-induced fibrillization, ThT fluorescence; series mostly up to 57.4 µM; activity, negative = inhibition: at the top concentration; further: nearly all actives have a fitted effect of over 55% in size
Chain of UniProt P10636 (P10636 whole entry, looked up, the tested form may be a part): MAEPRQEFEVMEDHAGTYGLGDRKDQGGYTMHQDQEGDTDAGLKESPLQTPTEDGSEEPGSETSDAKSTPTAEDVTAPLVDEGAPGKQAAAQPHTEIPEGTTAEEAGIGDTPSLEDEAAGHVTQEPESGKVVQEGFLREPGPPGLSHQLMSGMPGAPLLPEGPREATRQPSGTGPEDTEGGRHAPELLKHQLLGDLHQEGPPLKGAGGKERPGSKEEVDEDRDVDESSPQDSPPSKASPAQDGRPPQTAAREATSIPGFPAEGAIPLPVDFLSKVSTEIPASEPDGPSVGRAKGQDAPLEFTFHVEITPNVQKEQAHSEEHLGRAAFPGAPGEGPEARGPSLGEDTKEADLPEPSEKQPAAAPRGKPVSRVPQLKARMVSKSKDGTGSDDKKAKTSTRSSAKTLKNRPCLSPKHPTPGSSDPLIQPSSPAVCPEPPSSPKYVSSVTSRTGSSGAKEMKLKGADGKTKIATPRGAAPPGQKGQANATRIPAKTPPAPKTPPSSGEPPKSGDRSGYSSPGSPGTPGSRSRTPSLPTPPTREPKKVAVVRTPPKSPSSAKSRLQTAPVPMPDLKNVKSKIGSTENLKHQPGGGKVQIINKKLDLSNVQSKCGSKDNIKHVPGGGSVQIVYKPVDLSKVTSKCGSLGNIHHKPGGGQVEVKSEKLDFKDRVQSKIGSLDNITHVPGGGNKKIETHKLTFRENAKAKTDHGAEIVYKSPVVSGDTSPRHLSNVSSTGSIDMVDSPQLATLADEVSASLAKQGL
Summary of the method: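 Heparin-induced (20 uM) aggregation of recombinant human K18 P301L tau, 15 uM unlabeled with 0.24 uM labeled, pH 7 acetate buffer, 6 hr at 37 C with compound. Fibrils quantified by 30 uM ThT fluorescence after 1 hr ambient incubation.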
On the % scale 0 is the no-effect control and ±100 the full control effect; potency means the concentration at half of the fitted maximal effect; tags describe the fitted curve by direction and shape.

Row | SMILES | Potency | activity, negative = inhibition
1 | COC(=O)c1ccc(N=NN2CCCCCC2)cc1 | inconclusive: 15.8 µM [inhibitor, partial curve, poor fit] | –
2 | COc1ccccc1-c1noc(-c2ccco2)n1 | – | inactive: -9.7%
3 | Brc1ccc(CSc2nnc(Cc3c[nH]c4ccccc34)o2)cc1 | inconclusive: 31.6 µM [inhibitor, partial curve] | –
4 | CCN(CC)c1ccc(/C=N\N2CCN(Cc3ccc(C)cc3)CC2)cc1 | inconclusive: 15.8 µM [inhibitor, partial curve] | –
5 | Cc1ccc(-c2noc(-c3nnn(CC(=O)Nc4cc(C)cc(C)c4)c3N)n2)cc1 | – | inactive: 12.9%
6 | CCOC(=O)CC1Sc2ccccc2NC1=S (configuration not stated) | inconclusive: 31.6 µM [inhibitor, partial curve] | –
7 | COc1ccc(C(=O)N(Cc2cc(OC)c(OC)c(OC)c2)CC2CCCO2)cc1 (configuration not stated) | – | inactive: 3.2%
8 | Cc1nc2ccc(N=NC3=C(O)CCCC3=O)cc2s1 | active: 12.6 µM | –
9 | COc1ccc(-c2cc(-c3ccccc3)nc(SCC(=O)CC(=O)OC(C)C)c2C#N)cc1 | – | inactive: -10.1%
10 | CCn1c2ccccc2c2cc(NC(=O)c3ccc(C)c([N+](=O)[O-])c3)ccc21 | inconclusive: 2.24 µM [inhibitor, full curve, poor fit] | –
11 | c1ccc2c3c([nH]c2c1)-c1[nH]ncc1CC3 | inconclusive: 6.31 µM [inhibitor, partial curve] | –
12 | N#C/C(=C\c1ccco1)C(=O)Nc1cccc2ncccc12 | – | inactive: -5.83%
13 | O=C(c1ccc(F)cc1)n1c(=S)nc2ccccn21 | inconclusive: 8.91 µM [inhibitor, full curve, poor fit] | –
14 | CC(C)C(C(=O)Nc1nccs1)c1ccc(Cl)cc1 (configuration not stated) | – | inactive: -3.85%
15 | O=c1c2c3n(c(=S)nc2[nH]n1-c1ccccc1)CCCCC3 | inconclusive: 35.5 µM [inhibitor, partial curve] | –
16 | COc1ccc(-n2cnnc2SCC(=O)c2cc(C)n(Cc3cccs3)c2C)cc1 | inconclusive: 12.6 µM [inhibitor, partial curve] | –
17 | CC(C)Cn1[nH]c2c3c(ccc2c1=O)C(=O)c1ccccc1C3=O | active: 14.1 µM | –
18 | Cc1cc(C)n2cc(CSc3nc4ccccc4s3)nc2n1 | inconclusive: 3.55 µM [inhibitor, full curve] | –
19 | COc1cccc(C(=O)Nc2cccc(C(=O)OCc3cc(=O)n4nc(C(C)C)sc4n3)c2)c1 | inconclusive: 2.82 µM [inhibitor, single point] | –
20 | CCn1c(C)c(C(C)=O)c(N2CCN(c3ccccc3)CC2)nc1=S | active: 22.4 µM | –
21 | CN(C)S(=O)(=O)c1cccc(-c2csc(N/N=C/c3ccco3)n2)c1 | inconclusive: 20 µM [inhibitor, partial curve] | –
22 | CCCCOc1ccc(CSc2nnc(C)n2N)cc1[N+](=O)[O-] | – | inactive: -5.5%
23 | O=C1c2ccccc2C(=O)N1CCCn1nnc(-c2ccc(N3CCOCC3)cc2)n1 | inconclusive: 5.01 µM [inhibitor, partial curve] | –
24 | CCCOc1cccc(C2/C(=C(/O)c3ccncc3)C(=O)C(=O)N2CCCN(C)C)c1 (configuration not stated) | – | inactive: -19.9%

Row | SMILES | Potency | activity, negative = inhibition
25 | O=C(COC(=O)c1ccco1)c1ccc2ccccc2c1 | inconclusive: 11.2 µM [inhibitor, partial curve] | –
26 | Cc1cc(Br)ccc1NC(=O)c1cnc(N2CCN(c3ccccn3)CC2)c2ccccc12 | inconclusive: 3.16 µM [inhibitor, full curve] | –
27 | COc1ccc(CCN(C)CC(O)c2ccccc2)cc1OC (configuration not stated) | – | inactive: -6.25%
28 | Cc1ccc(-n2[nH]c(C)c(C=Nc3ccc4[nH]c(=O)[nH]c4c3)c2=O)cc1C | inconclusive: 12.6 µM [inhibitor, partial curve] | –
29 | O=c1oc2ccccc2c(Nc2cccc3cccnc23)c1[N+](=O)[O-] | inconclusive: 20 µM [inhibitor, partial curve] | –
30 | COc1cc(C)c(NC(=S)Nc2cccc(Cl)c2)cc1OC | – | inactive: -10.4%
31 | Cc1nc(CC(=O)Nc2ccc(N(C)C)cc2)cs1 | inconclusive: 8.91 µM [inhibitor, full curve, poor fit] | –
32 | COC(=O)CSc1nc(N)c(C#N)c(-c2ccco2)c1C#N | inconclusive: 2.51 µM [inhibitor, full curve, poor fit] | –
33 | N#CC(C#N)=C1C=CC=CN1/C(=C\c1ccco1)C(=O)c1ccc(-c2ccccc2)cc1 | active: 15.8 µM | –
34 | CCOC(=O)c1c(CC(C)C)csc1/N=C/C1C(=O)CC(C)(C)CC1=O | inconclusive: 25.1 µM [inhibitor, partial curve] | –
35 | COc1ccc(C(C#N)C2(C)OCCO2)cc1OC (configuration not stated) | – | inactive: 12.6%
36 | CCOc1cc(/C=N\Nc2nc(-c3ccc(C)cc3)c(NC(C)=O)s2)ccc1O | active: 20 µM | –
37 | CC(C)(C)OC(=O)N1CCC[C@H]1c1nnc(SC/C=C/c2ccccc2)o1 | – | inactive: -0.986%
38 | CCOC(=O)c1c(NC(=O)c2c(C(=O)O)cccc2[N+](=O)[O-])sc(C)c1C | inconclusive: 35.5 µM [inhibitor, single point] | –
39 | Cc1nn(-c2ccccc2)c(Cl)c1C(=O)OC(C)C(=O)Nc1ccc2c(c1)OCO2 (configuration not stated) | inconclusive: 10 µM [inhibitor, partial curve] | –
40 | Cc1cc(C(=O)Nn2c(-c3ccc(Br)cc3)nc3ccccc3c2=O)ccc1[N+](=O)[O-] | – | inactive: -7.73%
41 | CCOC(=O)c1nn(-c2ccc(Cl)cc2Cl)c(=N)c(C#N)c1C | inconclusive: 14.1 µM [inhibitor, partial curve] | –
42 | O=C1c2c(O)cc(O)cc2O[C@@]12c1c(cc(O)c3c1O[C@H](c1ccc(O)cc1)[C@@H](O)C3)O[C@@H]2c1ccc(O)cc1 | inconclusive: 22.4 µM [inhibitor, partial curve, poor fit] | –
43 | CSc1nc2sc3c(c2c(=O)n1-c1ccc(F)c(Cl)c1)CCN(C(C)=O)C3 | – | inactive: -16.2%
44 | O=C1CN(C(=O)c2ccc(Br)o2)C(c2ccccc2)c2cc(Br)ccc2N1 (configuration not stated) | – | inactive: -3.63%
45 | O=C(COc1ccc2c(c1)CCC2)N1CCc2ccccc21 | inconclusive: 2 µM [inhibitor, full curve] | –
46 | COc1ccc(N(C2=NCCCS2)S(=O)(=O)c2ccc(C(C)(C)C)cc2)cc1 | – | inactive: -2.93%
47 | CCOc1ccc(-c2nc(SCC(=O)NCCOC)c(-c3ccc(OC)c(OC)c3)[nH]2)cc1 | inconclusive: 11.2 µM [inhibitor, partial curve] | –
48 | S=c1[nH]nc(-c2cc(-c3ccccc3)n[nH]2)n1/N=C/c1c2ccccc2cc2ccccc12 | inconclusive: 15.8 µM [inhibitor, partial curve] | –

Row | SMILES | Potency | activity, negative = inhibition
49 | S=C(NCC1CCCO1)N1CCN(c2ccc(Cl)c(Cl)c2)CC1 (configuration not stated) | inconclusive: 17.8 µM [inhibitor, partial curve] | –
50 | COC(=O)C1=C(C)N(c2cc(C)cc(C)c2)/C(=C/c2ccco2)C1=O | inconclusive: 20 µM [inhibitor, partial curve] | –
51 | Cc1ccc(NC2=C(Cl)C(=O)OC2OC(=O)c2ccco2)cc1C (configuration not stated) | inconclusive: 15.8 µM [inhibitor, single point] | –
52 | COc1cc(NS(C)(=O)=O)ccc1Nc1c2ccccc2nc2ccccc12 | active: 14.1 µM | –
53 | CC(=O)Nc1ccc(C(=O)N/N=C/c2cc(Br)cc(Br)c2O)cc1 | inconclusive: 2.82 µM [inhibitor, full curve] | –
54 | Cc1ccc(Sc2ccc(CN3CCCC3)cc2[N+](=O)[O-])cc1 | inconclusive: 35.5 µM [inhibitor, single point] | –
55 | COc1ccc(-c2nc(-c3cccnc3)no2)cc1OC | inconclusive: 17.8 µM [inhibitor, partial curve, poor fit] | –
56 | COC(=O)c1sccc1S(=O)(=O)N(CC(=O)NCc1ccc(C)cc1)c1ccc(Cl)cc1 | – | inactive: 2.65%
57 | COc1cc(/C=C2\C(=O)NN(c3ccccc3)C2=O)ccc1OCC(N)=O | inconclusive: 15.8 µM [inhibitor, partial curve] | –
58 | CC(=O)Nc1ccc(NC(C)=O)s1 | – | inactive: -5.63%
59 | O=S(=O)(NCc1cccc(Br)c1)c1ccc(-c2cc(C(F)(F)F)on2)s1 | – | inactive: 19.7%
60 | Cc1ccc(C(=O)Nc2c(C(=O)NCc3ccc(Cl)cc3)sc3nc(C)cc(C)c23)cc1 | – | inactive: -1.35%
61 | CC(=O)Oc1cccc(/C=c2\sc3nc(-c4ccco4)nn3c2=O)c1 | inconclusive: 14.1 µM [inhibitor, partial curve] | –
62 | C=CCNC(=O)c1sc(-c2ccccc2)nc1C | – | inactive: -9.73%
63 | CCOc1cc(/C=N/O)ccc1OCC(=O)Nc1cccc(C)c1 | – | inactive: -1.34%
64 | CC(C)N1C(=O)/C(=C\c2nc3ccccc3c(=O)[nH]2)c2ccccc21 | active: 28.2 µM | –
65 | Cn1c2c(c(=O)[nH]c1=O)C(c1cccc(O)c1)C1=C(N2)c2ccccc2C1=O (configuration not stated) | inconclusive: 31.6 µM [inhibitor, single point] | –
66 | CCN1C(=O)c2cccc3c(S(=O)(=O)Nc4nc(C)cs4)ccc1c23 | – | inactive: -14.9%
67 | Cc1cccc(C)c1OCc1nc2c3cnn(-c4cccc(F)c4)c3ncn2n1 | inconclusive: 0.158 µM [inhibitor, full curve] | –
68 | CCOC(=O)c1cc(S(=O)(=O)N2CCN(c3ccc(OC)cc3)CC2)[nH]n1 | – | inactive: 1.26%
69 | COc1ccc(/C=C/C(=O)O/N=C(\N)c2ccccc2)cc1OC | inconclusive: 5.62 µM [inhibitor, partial curve] | –
70 | O=C(CCC(=O)c1ccc(Cl)cc1)OCC(=O)c1ccccc1 | inconclusive: 8.91 µM [inhibitor, partial curve] | –
71 | Cc1ccc(NC(=O)CC2SC(=O)NC2=O)cc1 (configuration not stated) | inconclusive: 39.8 µM [inhibitor, single point] | –
72 | Cc1ccccc1NC(=O)c1sc2nc3c(cc2c1N)CCCC3 | inconclusive: 1.12 µM [inhibitor, full curve] | –
